Data reported in the supplement of paper PMC10338343.
± gives the standard deviation. This is a selection; strong and weak results do not stand in their true shares.

Tested on: MIWI (PIWIL1) piRISC loaded with piRNA #1 (30 nt)
Experiment: pre-steady-state target cleavage rate (min^-1); MIWI and MILI are mouse PIWI proteins and EfPiwi is from a freshwater sponge; tags in brackets are library labels; higher = faster piRNA-guided slicing of the target
Settings: guide: piRNA #1 5'p-UGAGGUAGUAGGUUGUAUAGUAUCCAGAGG; auxiliary factor: 500 nM mouse GTSF1
In short: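 Active affinity-purified piRISC (1 nM) loaded with one synthetic guide was mixed with a transcribed, DNA-blocked target RNA library (0.1 nM), with or without 500 nM GTSF1 partner protein, in HEPES–potassium acetate buffer at 33 °C for 0–8 or 0–960 min. Uncleaved targets were sequenced, normalised to depth and to weakly complementary targets, and pooled across three trials, with k3 capped at 0.0001 min^-1. The pre-steady-state cleavage rate was determined with a burst-and-steady-state fit.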

First: CCUCUGGUUACUAUAGAACCUACUACCUCA
Second: CCUCUGGAUAGUAUACAACCUACAACCUCA
The “pre-steady-state target cleavage rate” value of the first is lower: 0.623 ± 0.059 for the first, 1.06 ± 0.079 for the second.

First: GGUCUGGAUACUAUACAAGCUACUACCACA
Second: GGAGACCUAUGUAUACAACCUACUACACUCA
The “pre-steady-state target cleavage rate” value of the first is higher: 1.42 ± 0.065 for the first, 0.132 ± 0.019 for the second.

Compared with GGAGACCUUACUAUACAACCUACAUACCUCA, GGAGAGGUUACUAUACAACGUACUACCUCA is lower in “pre-steady-state target cleavage rate” value: 0.968 ± 0.12 for the first, 0.0314 ± 0.0079 for the second.

Going from GGUCUGGAUACUUUACAUCCUACUACCUCA to GCUCUGGAUACUAUACAACCUUCAACCUCA, the “pre-steady-state target cleavage rate” value falls from 1.35 ± 0.083 to 0.321 ± 0.029.

Compared with GGAGACCUAACUAUUCAACCUACUUCCUCA, GGACUGGAUACUAUACAAUCUACUACCUCA is higher in “pre-steady-state target cleavage rate” value: 0.0693 ± 0.027 for the first, 0.423 ± 0.023 for the second.

Going from GGAGACCUUACUAUACAUCCUACUUCCUCA to GCUCAGGAUACUAUAGAACCUACUACCUCA, the “pre-steady-state target cleavage rate” value rises from 0.228 ± 0.026 to 0.384 ± 0.041.

Compared with GGAGACCUAUGUAUACCAACCUACUACCUCA, CCUCUGGAUAGUUUACAACCUACUACCUCA is higher in “pre-steady-state target cleavage rate” value: 0.0026 ± 0.0026 for the first, 0.525 ± 0.029 for the second.

Going from GGUCUGGAUACUAUACAACCCACUACCUCA to GGAGACCAUACUAUACAACCUACUACCUCCA, the “pre-steady-state target cleavage rate” value rises from 0.631 ± 0.034 to 1.14 ± 0.065.
